Laboratory results: PubChem BioAssay AID485344 (National Center for Advancing Translational Sciences (NCATS), 2010)
Values joined by “and” are separate entries in the source; they are usually repeats but may differ in a detail not shown here. Equal entries are not always repeated. The campaign covered roughly 340,000 compounds. About 6,900 (2%) were called active. Cut-off read from the data, not from the text of the source: active = inhibition above about 30%; inactive = below that, where a call was filed. The entries are a selection whose mix differs from that of the whole data set. Entries without a call were filed so in the source.

Target: D(2) dopamine receptor (Homo sapiens) (UniProt P14416)
Assay: HTS Assay for Allosteric Antagonists of the Human D2 Dopamine Receptor: Primary Screen for Antagonists; note: 0% is about no effect
Settings: HEK293 TREx D2 cells, calcium flux, dopamine EC80; at 10 µM; stronger effect = higher value
Procedure, shortened: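 Tetracycline-induced HEK293 TREx cells expressing D2 receptor forced-coupled to calcium signalling, loaded with no-wash calcium dye. Compounds added and calcium flux read 180 s, then dopamine added at EC80 and read a further 180 s.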

Chain of UniProt P14416 (P14416 whole entry, looked up): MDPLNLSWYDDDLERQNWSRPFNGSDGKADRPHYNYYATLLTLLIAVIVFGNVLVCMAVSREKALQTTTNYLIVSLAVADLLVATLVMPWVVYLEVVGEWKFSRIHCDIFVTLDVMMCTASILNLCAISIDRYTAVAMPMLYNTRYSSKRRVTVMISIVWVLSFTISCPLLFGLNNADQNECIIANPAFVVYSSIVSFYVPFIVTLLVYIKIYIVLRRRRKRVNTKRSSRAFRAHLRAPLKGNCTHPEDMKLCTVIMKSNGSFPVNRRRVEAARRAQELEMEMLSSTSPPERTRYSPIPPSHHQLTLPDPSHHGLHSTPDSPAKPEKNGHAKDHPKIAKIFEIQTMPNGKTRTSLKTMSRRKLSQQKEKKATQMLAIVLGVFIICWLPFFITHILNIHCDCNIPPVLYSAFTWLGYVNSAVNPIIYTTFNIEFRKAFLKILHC

| SMILES | inhibition |
| --- | --- |
| COc1cc(C(=O)O/N=C2\C=CC(=O)C=C2C)cc(OC)c1OC | active: 49.8% |
| CCOc1ccc(CC(=O)Nc2c(C(=O)c3ccc(F)cc3)oc3ccccc23)cc1OCC | -8.22% |
| COc1cccc(CNC(=O)CCc2nnc3n(C)c(=O)c4sccc4n23)c1 | -9.12% |
| CCCN(CCC)CCCNC(=O)C1CCC(CNS(=O)(=O)c2ccc(NC(C)=O)cc2)CC1 (stereo unspecified) | -0.362% |
| COc1ccc(NC(=O)Cn2c(CCC(=O)O)ccc2-c2ccccc2)cc1Cl | -8.17% |
| CC(=O)Nc1ccc(NC(=O)CC2Sc3ccccc3NC2=O)cc1 (stereo unspecified) | -5.78% |
| Cc1ccc(Cl)cc1N1CCN(C(=O)c2cc(S(=O)(=O)N3CCC(C)CC3)cn2C)CC1 | 19% |
| CCOc1ccc(CNC(=O)C2CCN(S(=O)(=O)c3c(C)noc3/C=C/c3ccc(C)cc3)CC2)cc1OC | 3.23% |
| O=C(CCN1CCC(c2ccccc2)C1)c1ccc2c(c1)OCCO2 (stereo unspecified) | active: 86.7% |
| COc1ccc(NC(=O)CSc2nc3nc(C)cc(C)n3n2)cc1 | -2.92% |
| Cc1c(CNCc2ccc(Cl)cc2)c(C(=O)O)c(C)n1Cc1ccc(F)cc1 | -4.6% |
| CCOc1ccc(CNS(=O)(=O)c2ccc3[nH]c4c(c3c2)CCCC4)cc1OC | -0.392% |
| COc1ccc2oc(=O)cc(CN3CCN(C(=O)c4ccccc4F)CC3)c2c1 | 7.13% |
| Cc1ccc(C(C)(C)C)c(OCCCCN2CCCC2)c1 | active: 31% |
| Cc1[nH]c2ccccc2c1C(=O)CN1CCN(C/C=C/c2ccccc2)CC1 | active: 80.3% |
| COc1ccc(CNC(=O)Cn2ccc3cc(S(=O)(=O)N4CCCCCC4)ccc32)cc1OC | 6.19% |
| COc1cccc(-c2cn3c(n2)sc2cc(C(=O)NCc4cccs4)ccc23)c1 | -3.25% |
| CCOCCCNC(=O)C(c1ccc(OC)cc1)N(Cc1cccs1)C(=O)c1ccc(NC(C)=O)cc1 (stereo unspecified) | -2.32% |
| Oc1cccc(C(Nc2ccccn2)c2ccc3cccnc3c2O)c1Cl (stereo unspecified) | 1.22% |
| Fc1cccc(-c2nc(-c3ccncc3)no2)c1 | 4.6% |
| Cc1ccc(C(=O)c2oc3ccccc3c2NC(=O)c2cc(=O)c3ccccc3o2)cc1 | 2.63% |
| Cc1ccc(C)c(Cn2c(=O)c3c(nc4n3CCN4c3ccc(F)cc3)n(C)c2=O)c1 | 1.7% |
| CCOC(=O)c1c(C)[nH]c(CCC(=O)NCCCN2CCN(c3cccc(Cl)c3)CC2)c1C | -12.7% |
| CCOc1ccc(-n2c(Cc3ccccc3)nnc2SCc2nc(-c3ccccc3C)no2)cc1 | 8.88% |

| SMILES | inhibition |
| --- | --- |
| CCOc1ccc2ccccc2c1/C=N\NC(=O)c1ccc([N+](=O)[O-])cc1 | active: 39.5% |
| CC(=O)NCCNC(=O)CCCc1nnc2n(CCC(C)C)c(=O)c3sccc3n12 | 2.4% |
| Cc1ccc(NC(=O)C(=O)NCC(c2cccnc2)N2CCOCC2)cc1C (stereo unspecified) | -12.7% |
| CCc1ccc(OC(=O)CSc2nnc(-c3ccc4c(c3)OCO4)o2)cc1 | -9.94% |
| O=C(NC1CCCC1)c1c[nH]c2ccc(S(=O)(=O)Nc3cccc(C(F)(F)F)c3)cc2c1=O | 7.25% |
| CC(=O)OCC#CCSc1nnc(-c2cccc(Br)c2)o1 | 3.65% |
| CCOC(=O)c1c(C)oc2nc(C)nc(NCC3CCN(Cc4ccc(Cl)cc4)CC3)c12 | -1.37% |
| CCN(c1ccccc1)S(=O)(=O)c1nnc(NC(=O)COc2ccc(OC)cc2)s1 | 9.16% |
| COCCNC(=O)C1CCN(S(=O)(=O)c2ccc3c(c2)CCCN3C(C)=O)CC1 | 11.1% |
| CCOC(=O)c1[nH]c(C)c(CCC(=O)N2CCN(c3ccccc3)CC2)c1C | -0.965% |
| COc1ccc(-c2nc3n(n2)C(c2ccc(OC)cc2)C(C(=O)Nc2cccnc2)=C(C)N3)cc1 (stereo unspecified) | 7.48% |
| O=c1[nH]c(Nc2ccc3c(c2)OCCO3)nnc1Cc1ccccc1 | active: 48.6% |
| CCOc1ccc(N2CC(c3nc(-c4cc(OC)c(OC)c(OC)c4)no3)CC2=O)cc1 (stereo unspecified) | 3.21% |
| CCOc1ccc(N(C)S(=O)(=O)c2ccc3c(c2)C(C)(C)C(=O)N3C)cc1 | -7.55% |
| Cn1c(=O)oc2cc(S(=O)(=O)CCC(=O)NCc3ccccc3)ccc21 | 2.33% |
| Cc1ccc(C)c(NC(=O)C2CCCN(S(=O)(=O)c3c(C)noc3/C=C/N(C)C)C2)c1 (stereo unspecified) | -14.5% and active: 36.8% |
| COc1ccc(CSc2nc3ncccc3[nH]2)cc1 | -5.2% |
| Cc1ccc(-n2nnc3c(sc4nc(C)c(C)cc43)c2=O)cc1Cl | 11.9% |
| COc1ccc(-c2c(C)[nH]n3c(=O)c(Cc4ccccc4)c(C)nc23)cc1 | active: 31.2% |
| COc1ccc(Cl)cc1NC(=O)CCc1nc(-c2ccccc2F)no1 | -6.97% |
| O=C(Cn1c(=O)n(Cc2ccc3c(c2)OCO3)c(=O)c2ccccc21)Nc1cccc(Cl)c1 | -2.08% |
| Cc1c(C(=O)N2CCCC2)oc2c1-c1nn(CC(=O)NCc3cccc(Br)c3)cc1CC2 | -4.11% |
| NS(=O)(=O)c1ccc(NC(=O)CCn2c(=O)oc3ccccc32)cc1 | 15.4% |
| O=C(C1CCC(CNS(=O)(=O)c2ccc(Br)s2)CC1)N1CCN(c2ccccc2)CC1 (stereo unspecified) | -8.74% |

| SMILES | inhibition |
| --- | --- |
| Cc1nnc(SCc2cc(=O)n3c(C)cccc3n2)s1 | -23.1% |
| COc1ccc(-n2ncc3c(N4CCN(c5cccc(C)c5)C(C)C4)ncnc32)cc1 (stereo unspecified) | 5.07% |
| Clc1cccc(CNc2ncnc3c2nc2n3CCCC2)c1 | -10.9% |
| CCOc1ccc(Cn2c(=O)oc3ccccc32)cc1 | 17.6% |
| Cc1oc2c(C)c(O)ccc2c(=O)c1-c1ccc2ccccc2n1 | active: 43.9% |
| Cc1ccc(-c2noc(COc3ccc(Br)c(C)c3)n2)cc1 | -12.7% |
| O=C(CCN1CCN(c2ccccc2F)CC1)Nc1ccccc1F | active: 86.4% |
| O=C1CC(c2nc3ccccc3n2CCCCOc2ccccc2)CN1c1ccccc1Cl (stereo unspecified) | -4.49% |
| CCc1nnc(NC(=O)CSc2nc3c([nH]c4ccccc43)c(=O)n2-c2cc(C)cc(C)c2)s1 | -0.681% |
| CC1CCCCN1Cc1c(O)ccc2c(=O)c(-c3cccc(Cl)c3)c(C(F)(F)F)oc12 (stereo unspecified) | 13.1% |
| O=C(NCCc1ccccc1)c1ccc2c(c1)N(Cc1ccccc1Cl)C(=O)c1ccccc1S2 | 14.7% |
| COc1ccc(-c2nc3scc(CCNS(=O)(=O)c4ccc(F)cc4F)n3n2)cc1OC | 8.71% |
| Cc1ccc(C)c(NC(=O)CCN2CCc3ccccc3C2)c1 | active: 31.3% |
| CC(C)NC(=O)Nc1ccc2c(c1)N(C)C(=O)c1ccccc1S2 | -9.81% |
| COc1ccccc1CNC(=O)C(Cc1ccccc1)NS(=O)(=O)c1ccc2c(c1)oc(=O)n2C (stereo unspecified) | -8.87% |
| CN1CCN(c2nc(NCc3ccco3)nc(N)c2[N+](=O)[O-])CC1 | active: 77.2% |
| Cc1ccc(-c2nc3c(c(SCC(=O)N4CCCCC4)n2)Cc2cc(C)ccc2O3)cc1 | -4.68% |
| CCc1ccc(-c2nc(CSCC(=O)NCc3ccccc3OC)c(C)o2)cc1 | 9.99% |
| CCn1c(CNC(=O)c2ccc(OC)cc2)nnc1SCC(=O)Nc1ccc(OC)cc1 | -8.21% |
| Cc1ccccc1CNC(=O)C(C)n1nc(C)n2c(cc3occc32)c1=O (stereo unspecified) | -5.66% |
| COc1ccc(CC(=O)Nc2nc3c(s2)CC(C(C)(C)C)CC3)cc1 (stereo unspecified) | -10.3% |
| COc1ccc(NC(=O)C2=CC(c3cccs3)=NS(=O)(=O)N2C)cc1 | -19.1% |
| Cc1ccc(NC(=O)CN2C(=O)CCSc3ccc(S(=O)(=O)N4CCCC4)cc32)cc1 | -7.73% |
| COc1ccc(CCN=CC2=C(O)CC(C)(C)CC2=O)cc1 | active: 31.4% |

| SMILES | inhibition |
| --- | --- |
| CCOC(=O)c1ccc(CN(Cc2ccccc2)S(=O)(=O)c2ccc(C)cc2)cc1 | -2.8% |
| COc1ccc(CCC(=O)NC2CC(=O)N(c3ccc(C)cc3)C2)cc1 (stereo unspecified) | -1.88% |
| Cc1cccc(C(=O)Nc2ccc(-c3nc4ccccc4s3)cc2Cl)c1 | 11.1% |
| CCCCNC(=O)C(CC)Sc1nnc(-c2cccc(F)c2)c(-c2cccc(F)c2)n1 (stereo unspecified) | 2.32% |
| COc1ccc2oc(=O)cc(CN3CCN(c4ccc(F)cc4)CC3)c2c1 | -13.9% |
| CCCCOC(=O)c1ccc(Nc2ncnc3[nH]ncc23)cc1 | -13.6% |
| CC(=O)Nc1c(C)nn(-c2ccccc2)c1N1CCC(C(=O)NCc2ccc(Cl)cc2)CC1 | -1.53% |
| Cc1cc(C)cc(N2CC(c3nc(-c4ccccc4C)no3)CC2=O)c1 (stereo unspecified) | 7.02% |
| Cc1cccc(NC(=O)Cn2c(=O)n(-c3ccccc3Cl)c(=O)c3c(C)c(C(=O)N(C)C)sc32)c1 | 8.48% |
| CCOC(=O)c1ccc(NC(=O)CN(c2ccc(C)cc2)S(=O)(=O)c2c(C)noc2C)cc1 | 0.978% |
| Cc1nc2c(C(=O)NCCc3ccc(Cl)cc3)cnn2c(C)c1Cc1c(F)cccc1Cl | -0.742% |
| O=C(NCc1ccccc1Br)c1ccc2nc(N3CCCCC3)sc2c1 | 2.51% |
| CC(C)CNC(=S)NC1CC2CCC(C1)N2Cc1ccccc1 (stereo unspecified) | active: 89.9% |
| CC(Nc1ccc(-c2nc(-c3ccncc3)no2)cc1[N+](=O)[O-])c1ccccc1 (stereo unspecified) | -4.42% |
| CCCCN(CCCC)C(=O)CN(C)S(=O)(=O)c1ccc2c(c1)c(=O)n(C)c(=O)n2C | -5.2% |
| Cc1sc2c(c1C)c(=O)n(CCc1ccccc1)c(=O)n2Cc1cccc(F)c1 | -18.2% |
| O=C(C1CCC1)N1CCc2cc(S(=O)(=O)NCCN3CCN(c4ccccc4F)CC3)ccc21 | active: 52.7% |
| COc1cccc(NC(=S)N(CCCN2CCC(C)CC2)Cc2cccs2)c1 | active: 59.1% |
| Cc1ccc(-n2c(=O)c3c(c4cc(C)ccc4n3C)n(CC(=O)NCc3ccccc3Cl)c2=O)cc1 | -14.2% |
| O=C(Nc1cc(F)ccc1F)C1CCN(c2nc3ccccc3n3cccc23)CC1 | 0.917% |
| CC1(C)CSC(=NCc2ccccc2)N1C(=O)c1cccc([N+](=O)[O-])c1 | active: 54.1% |
| COc1cc(CNCc2ccc(OC)c3ccccc23)cc(OC)c1OC | active: 33% |
| CC(=O)NCCNC(=O)CCCc1nnc2n(C)c(=O)c3sccc3n12 | 4.51% |
| CC(C)(C)C(=O)/C=c1\s/c(=C\c2ccc(-c3ccc([N+](=O)[O-])cc3)o2)c(=O)n1CC(=O)NC(N)=O | active: 90.9% |
